Among the data in PubChem BioAssay AID488969 (Vanderbilt High Throughput Screening Facility, 2010) are z-score values, retold here.

Each structure is given as a SMILES string. In all, about 110,000 compounds were measured (“z-score”: median about -0.1, highest 2% from about 2 on). The list shows a part of the results. Calls of active or inactive are those of the source.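 The calls were made as follows: active = z-score in the third read window above 3 or below -3; inactive = the rest.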

The experiment addresses Metabotropic glutamate receptor 8 (Rattus norvegicus) (UniProt P70579). As to the kind of experiment: rat mGluR8 modulators via GIRK flux, primary screen, cell-based, thallium flux, HTS (AID 488969). Conditions: HEK293 rat mGluR8, GIRK (G protein-gated inwardly rectifying potassium channel) thallium flux, FluoZin2; at 10 µM; stronger effect = higher value; submaximal glutamate (EC20) added with thallium.
Chain of UniProt P70579 (P70579 whole entry, looked up): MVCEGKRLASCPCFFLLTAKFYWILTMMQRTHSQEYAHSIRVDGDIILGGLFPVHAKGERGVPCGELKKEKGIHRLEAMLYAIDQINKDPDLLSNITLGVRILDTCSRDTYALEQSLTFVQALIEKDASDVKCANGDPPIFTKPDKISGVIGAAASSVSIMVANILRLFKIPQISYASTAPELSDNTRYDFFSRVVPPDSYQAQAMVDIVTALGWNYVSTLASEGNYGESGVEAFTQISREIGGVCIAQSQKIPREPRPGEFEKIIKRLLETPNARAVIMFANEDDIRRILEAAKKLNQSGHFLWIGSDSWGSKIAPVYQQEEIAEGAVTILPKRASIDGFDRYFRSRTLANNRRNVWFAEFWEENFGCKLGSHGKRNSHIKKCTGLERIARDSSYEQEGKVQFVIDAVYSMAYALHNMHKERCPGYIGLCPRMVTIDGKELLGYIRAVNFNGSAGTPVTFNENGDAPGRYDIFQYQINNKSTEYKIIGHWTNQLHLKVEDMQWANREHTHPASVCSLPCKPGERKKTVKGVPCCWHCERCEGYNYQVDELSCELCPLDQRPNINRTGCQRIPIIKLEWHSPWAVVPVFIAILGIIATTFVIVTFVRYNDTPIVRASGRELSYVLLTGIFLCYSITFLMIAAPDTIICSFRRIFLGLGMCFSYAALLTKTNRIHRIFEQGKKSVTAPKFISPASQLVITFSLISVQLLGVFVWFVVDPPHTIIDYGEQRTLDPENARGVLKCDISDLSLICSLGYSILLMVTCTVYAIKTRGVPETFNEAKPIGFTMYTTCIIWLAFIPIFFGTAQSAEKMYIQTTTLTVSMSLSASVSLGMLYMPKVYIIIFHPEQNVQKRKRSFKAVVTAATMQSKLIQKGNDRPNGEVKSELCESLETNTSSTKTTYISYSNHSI
As to `CC1CN(c2nc(-c3ccccc3)nnc2-c2ccccc2)CC(C)O1` (stereo not given), the z-score was -0.275.
The result for `Cc1scc(C(=O)O)c1-c1c(C(=O)O)csc1C` reads 1.02; that for `CSc1nc2c(c(C(F)(F)F)n1)CC(C)CC2` (stereo not given), 0.0989.
The result for `Cc1cc(C)cc(-n2c(C)cc(C=C(C#N)C#N)c2C)c1` reads -0.194.
In turn, `CCOC(=O)C1=C(CSc2nc3c(cc2C#N)CN(C)CC3)OC(N)=C(C#N)C1c1ccc(Cl)cc1` (stereo not given) returned a z-score of 0.063.
In the case of `Cc1ccccc1NC(=O)c1cnc(Nc2nc3ccccc3s2)nc1C`, the z-score was -0.102.
The result for `Cc1ccc(CN2C(=O)CCC2C(=O)NCc2ccc(F)cc2)cc1` (stereo not given) reads 0.736.
`CC1S/C(=N/N=C/c2cccs2)NC1=O` (stereo not given) gave a z-score of -0.359.
The compound `CC(C)C(=O)Nc1ccc(C(=O)NNC(=O)C(c2ccccc2)c2ccccc2)cc1` gave a z-score of -0.78.
Consider `COc1ccccc1C1c2c(C)nn(-c3ccccc3)c2NC(=O)C1NC(=O)c1ccccc1` (stereo not given), for which the z-score was -0.0952.
The compound `CNC(=O)CN(c1cc(C)ccc1OC)S(=O)(=O)c1ccc(C)cc1` came in with a z-score of -0.11.
`CCc1nnc(NS(=O)(=O)c2ccc(NC(=S)NC(=O)c3ccc(OC)cc3)cc2)s1`: the z-score is -0.392.
The result for `O=C(CCC1COc2ccccc2O1)NCc1ccccc1` (stereo not given) reads 0.211.
With `CCOC(=O)c1cc(C#N)c(Oc2cccc(C(F)(F)F)c2)nc1-c1ccccc1` the figure was -0.14.
The result for `CCOc1cc(/C=C2\C(=O)N(CCc3ccc(OC)c(OC)c3)C(C)=C2C(=O)OC)ccc1O` reads -0.507.
Compound `O=C(NCCCN1CCN(c2ccccc2F)CC1)C1CC(=O)N(C2CCCC2)C1` (stereo not given) returned a z-score of 1.24.
Compound `COc1ccc(C2C(C(C)=O)=C(O)C(=O)N2CCCn2ccnc2)cc1` (stereo not given) yielded a z-score of -0.0749.
The result for `CCN(CC(=O)NC1CCCCC1)S(=O)(=O)c1ccc(Cl)cc1` reads 0.204.
With `COc1ccc(C(=O)CSc2nc3ccccc3n2CC(=O)NC(C)(C)C)cc1` the figure was -0.144; with `CCCCCCCCN1C(=O)C(O)=C(C(C)=O)C1c1ccccn1` (stereo not given), -0.796.
As for `CCc1ccc(N(C(=O)CCC(=O)Nc2cc(C)on2)C(C(=O)NC2CCCC2)c2ccco2)cc1` (stereo not given), the z-score is -0.203.
With `CC(=O)Nc1ccc(S(=O)(=O)NCC(=O)OC(C)c2ccccc2Cl)cc1` (stereo not given) the figure was 0.214; with `OCC1CCCN(C(=S)Nc2ccc(OC(F)F)cc2)C1` (stereo not given), -0.156.
On to `C=CCCC(=O)Nc1nc(C)c(-c2csc(Nc3ccc(Cl)cc3)n2)s1`, for which the z-score is 0.181.
With `Cc1ccc(CNC(=O)CSc2c3c(nc4ccc(Cl)cc24)CCCC3)o1` the figure was -0.0977; with `CCOC(=O)N1CCC(NS(=O)(=O)c2ccc3c(c2)OCC(=O)N3)CC1`, 0.746.
As to `CCCNC(=O)Nc1ccc2c(c1)nc(C)n2C`, the z-score is 0.0563.
On to `O=C(c1ccccc1F)N(NC(=O)C(O)(c1ccccc1)c1ccccc1)c1ccccc1`, for which the z-score was -0.118.
In the case of `Cc1cccc(Nc2nnc(SCC(=O)Nc3ccccc3[N+](=O)[O-])s2)c1`, the z-score is -0.102.
The result for `O=C(Nc1cccc(-c2csc(-c3ccccc3)n2)c1)c1cccs1` reads -0.145.
Consider `COc1ccc(N2CCN(C(=O)c3ccc(OCC4CCCO4)cc3)CC2)cc1` (stereo not given), for which the z-score was 1.96.
The result for `CC(C)(C)n1ncc2c(=O)n(CC(=O)Nc3ccc4c(c3)OCCO4)cnc21` reads 0.0522; that for `COCCNC(=O)c1ccc(N(C)S(=O)(=O)c2ccc(OC)c(OC)c2)cc1`, -0.42; that for `CC1(C)NC(=O)N(CC(O)Cn2nnc3ccccc32)C1=O` (stereo not given), -0.354.
With `CC(C)N(C(=O)N1CCC(c2nc(-c3ccncc3)no2)CC1)C(C)C` the figure was -0.207.
The result for `Cn1c(SCC(=O)N2c3ccccc3Sc3ccccc32)nnc1-c1ccco1` reads -1.85; that for `COc1ccc(CN(CC2CCCO2)C(=O)CN2C(=O)COc3ccccc32)cc1OC` (stereo not given), 0.574; that for `c1ccc(Oc2ccc(-n3cnnn3)cc2)cc1`, 0.426.
`CCCCCOc1ccc(CSC2=NCCN2)cc1[N+](=O)[O-]` returned a z-score of 0.0304.
With `CNCCCOc1ccc(C(C)(C)c2ccccc2)cc1` the figure was 0.32.
With `CC(=O)Nc1ccc(N(C)C)cc1[N+](=O)[O-]` the figure was 0.183.
The compound `Cc1ccc(NC(=O)CCC(=O)NNC(=O)c2cccc([N+](=O)[O-])c2)cc1C` came in with a z-score of -0.622.
The result for `COc1cccc(C2CC(c3cccs3)=NN2C(=O)CSc2nc3ccccc3o2)c1OC` (stereo not given) reads -0.147; that for `COC(=O)c1ccc(NC(=O)CN2C(=O)C3C4C=CC(C4)C3C2=O)cc1` (stereo not given), -0.0955; that for `CCc1nn(CC(=O)NCCCN2CCc3ccccc3C2)c(=O)c2cc3sccc3n12`, -0.0587.
The result for `COc1ccc(NC(=S)c2ccc(N(C)C)cc2)cc1` reads -0.183; that for `OC(COc1ccc2ccccc2c1)CN1CCOCC1` (stereo not given), -0.0154; that for `Cc1cccc(-n2c(SCC(=O)N3CC(=O)Nc4ccccc43)nc3ccccc3c2=O)c1C`, -0.543.
With `CCOC(=O)c1cc2oc(C(c3nnnn3C3CCCCC3)N3CCOCC3)cc2[nH]1` (stereo not given) the figure was 0.252; with `O=C(CN1C2=NCCN2c2ccccc21)c1cccs1`, 0.0115; with `O=C(O)c1ccc(CSc2n[nH]c(-c3ccco3)n2)cc1`, 0.105.
For the compound `COCC(=O)Nc1cc(C(=O)Nc2cccc(C)c2C)ccc1Cl`, the z-score was -0.402.
On to `COc1ccc(OCCCN2CCCCCC2)cc1`, for which the z-score was active: 8.02.
For `CC12CC3(C)CC(C)(C1)CC(NC(=O)N1CCCC1)(C2)C3`, the z-score is -0.28.
With `Cc1ccc(=O)n(C(C(=O)NCc2ccco2)C(=O)c2ccc(F)cc2)c1` (stereo not given) the figure was 0.623.
With `CC1(C)CC(CC(=O)Nc2ccccc2[N+](=O)[O-])C(=O)O1` (stereo not given) the figure was -0.0252.
With `O=c1n(-c2cccc(Cl)c2)c(=O)n2n1CCC2` the figure was -0.72; with `CSc1nc2cc(S(=O)(=O)N3CCOCC3)ccc2s1`, 0.204.
`COCCCn1c(SCc2cccc(C(F)(F)F)c2)nc2cc(OC)c(OC)cc2c1=N` had a z-score of -0.159.
With `CCN(CC)CCN1C(=O)c2ccccc2NC1c1ccc(N(C)C)cc1` (stereo not given), the z-score is -0.18.
`CCOC(=O)c1c[nH]c2c(Cl)c(Cl)ccc2c1=O` returned a z-score of -0.236.
The result for `Cc1cccc(NC(=O)C2CCN(S(=O)(=O)c3cccs3)CC2)c1` reads -0.638; that for `COC(=O)C1=C(C)OC(N)=C(C#N)C1c1c(C)nn(-c2ccccc2)c1Cl` (stereo not given), -0.777.
With `O=C(OCC(=O)N1CCCCCC1)c1cccs1` the figure was 0.295.
The compound `CCN(CC)c1ccc([N+](=O)[O-])cc1C(=O)O` showed a z-score of 0.0144.
The result for `Cc1nc2c(C(=O)NCc3ccccc3)c[nH]n2c(=O)c1Cl` reads -1.48; that for `CC(=O)c1ccc(Oc2cc(C)nc(-n3nc(C)cc3C)n2)cc1`, 0.366.
As for `CC(C)n1ncc(C(N)=O)c1N`, the z-score is -0.447.
With `O=C(CN1CCC(C(=O)c2ccc(F)cc2)CC1)Nc1ccc(F)cc1`, the z-score is 0.273.
With `Cc1ccc(Nc2nc(-c3c(C)nc4ncccn34)cs2)cc1` the figure was -0.789.
